Laboratory results published in PubChem BioAssay AID2147 (National Center for Advancing Translational Sciences (NCATS), 2009).
Where “and” joins values, the source holds several entries; their conditions need not be identical. Equal entries are not always repeated. Hit rate of the full screen: of about 230,000 compounds, about 3,600 (1.6%) were called active. This list was built around the results that the source calls inconclusive (neither active nor inactive); the mix of calls is not that of the screen. The call rests on the fitted dose curve; in most records, active means well fitted inhibition curve with a large enough effect (not every such curve was filed as active); inconclusive means small, poorly fitted or top-dose-only effect, or another doubt; inactive means no such curve, though single readings can be large or run the other way. A potency beside an inconclusive call is a rough fit, not a confirmed value.
Further: nearly all actives have a fitted effect of over 50% in size.
Potency means the concentration at half of the fitted maximal effect; tags describe the fitted curve by direction and shape.
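Wherever activity change, negative = inhibition is given: 0% = wells with enzyme and -100% = buffer wells without enzyme.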

The molecules below were run against Lysine-specific demethylase 4E (Homo sapiens) (UniProt B2RXH2) (assay: qHTS Assay for Inhibitors of Human Jumonji Domain Containing 2E (JMJD2E)). Settings: JMJD2E catalytic domain, FDH-coupled NADH fluorescence (FDH is formaldehyde dehydrogenase); series mostly up to 57.1 µM; activity change, negative = inhibition: at the top concentration.
UniProt B2RXH2, sequence (B2RXH2 whole entry, looked up, the tested form may be a part): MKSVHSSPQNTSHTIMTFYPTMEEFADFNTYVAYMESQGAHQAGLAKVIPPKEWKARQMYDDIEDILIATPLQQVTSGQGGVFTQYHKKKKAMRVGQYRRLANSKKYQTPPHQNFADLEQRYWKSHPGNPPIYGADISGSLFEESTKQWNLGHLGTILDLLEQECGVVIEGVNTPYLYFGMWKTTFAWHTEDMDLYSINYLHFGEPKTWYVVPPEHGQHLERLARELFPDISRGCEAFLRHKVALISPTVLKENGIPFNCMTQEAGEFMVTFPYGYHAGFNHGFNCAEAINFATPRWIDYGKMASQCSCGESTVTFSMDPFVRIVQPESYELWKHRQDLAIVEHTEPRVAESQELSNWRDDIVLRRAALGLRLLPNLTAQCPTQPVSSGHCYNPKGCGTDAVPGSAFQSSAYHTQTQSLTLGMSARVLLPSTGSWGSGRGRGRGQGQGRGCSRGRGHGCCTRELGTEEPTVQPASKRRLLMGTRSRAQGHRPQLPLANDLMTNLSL
For COc1cccc(NC(C)(C)c2nnnn2-c2c(C)cccc2C)c1, the “activity change, negative = inhibition” value was inactive: 7.37%.
With CC(C)C(OC(=O)c1cc2sccc2n1C)C(=O)NCC1CCCO1 (configuration not stated) the “activity change, negative = inhibition” value was inactive: 7.71%.
In the case of CC(=O)NCCc1c[nH]c2ccc(OCC(O)CNC(C)(C)C)cc12 (configuration not stated), the Potency is reported as inconclusive: 25.1 µM [inhibitor, single point].
In the case of COc1ccc(Cl)cc1N(C)C(=O)CCc1nc(-c2ccc(C)cc2)no1, the “activity change, negative = inhibition” value is reported as inactive: 4.29%.
With COc1ccc(Cl)cc1C(=O)Nc1ccc(S(=O)(=O)N2CCCC2)cc1 the Potency was inconclusive: 35.5 µM [inhibitor, single point].
For CCC(c1nnnn1Cc1ccco1)N(CCN1CCOCC1)Cc1cc2cc(C)ccc2[nH]c1=O (configuration not stated), the Potency was inconclusive: 25.1 µM [inhibitor, partial curve].
Cc1cc(O)c(C(C)C)cc1NC(=O)Nc1cccc2ccccc12 was tested, and the “activity change, negative = inhibition” value was inactive: -24.7%.
In the case of COc1cc2cc(C(N)=O)c(N)nc2cc1OC, the Potency is reported as inconclusive: 28.2 µM [inhibitor, partial curve].
In the case of Cc1ccccc1OCC(O)CN1CCN(CCN2C(=O)c3cccc4cccc(c34)C2=O)CC1 (configuration not stated), the Potency is reported as inconclusive: 39.8 µM [inhibitor, single point].
In the case of COc1cccc(C2c3[nH]c4ccccc4c3CCN2Cc2cccn2-c2ncccn2)c1 (configuration not stated), the Potency is reported as inconclusive: 35.5 µM [inhibitor, single point].
With CCCc1[nH]c(=O)c(C#N)c2c1COC(C)(C)C2 the Potency was inconclusive: 28.2 µM [inhibitor, partial curve].
Oc1cc2c(cc1O)C1c3ccc(O)c(O)c3OCC1(O)C2 (configuration not stated) was tested, and the Potency was active: 10 µM and active: 708 nM.
With Cc1cc(Oc2ccc(Cl)cc2)nc(-c2ccccn2)n1 the “activity change, negative = inhibition” value was inactive: -3.43%.
In the case of Nc1nc2ccccc2cc1S(=O)(=O)c1ccccc1, the Potency is reported as inconclusive: 28.2 µM [inhibitor, partial curve].
O=C(/C=C/c1cccs1)NC(=S)NNC(=O)c1ccccc1O was tested, and the Potency was inconclusive: 39.8 µM [inhibitor, single point].
With N#CCC(=O)N/N=C/c1cn(Cc2ccc(Cl)c(Cl)c2)c2ccccc12 the Potency was inconclusive: 28.2 µM [inhibitor, single point].
For CCN1CCN(C2=NC(=O)/C(=C/c3ccc(C)o3)S2)CC1, the Potency was inconclusive: 39.8 µM [inhibitor, single point].
For NC1(C(=O)O)CC1, the Potency was inconclusive: 25.1 µM [inhibitor, single point].
CCCCCCn1c(=O)[nH]c2c(c1=O)CCC2 was tested, and the “activity change, negative = inhibition” value was inactive: -1.78%.
For CCc1ccc(NC(=O)CCN2C(=O)c3cccnc3C2=O)cc1, the “activity change, negative = inhibition” value was inactive: -1.16%.
For CC(C)(C)c1ccc(C(=O)NNc2ncccc2-n2cccc2)cc1, the “activity change, negative = inhibition” value was inactive: -3.51%.
COc1cccc(-c2csc(N3CCN(C(=S)Nc4ccccc4)CC3)n2)c1 was tested, and the “activity change, negative = inhibition” value was inactive: -2.13%.
For CCSc1nnc(NC(=O)[C@@H](NC(=O)c2ccc(C(C)(C)C)cc2)C(C)C)s1, the Potency was inconclusive: 39.8 µM [inhibitor, single point].
CCCCC(C)(O)C/C=C/[C@H]1[C@H](O)CC(=O)[C@@H]1CCCCCCC(=O)O (some centres not stated) was tested, and the “activity change, negative = inhibition” value was inactive: 5.17%.
Nc1cc(Cl)ccc1C(=O)OCC(=O)N1CCOCC1 was tested, and the Potency was inconclusive: 28.2 µM [inhibitor, partial curve].
For COc1cc(/C=N\NC(=O)C2C(=O)NCC2c2ccccc2)cc(OC)c1O (configuration not stated), the Potency was inconclusive: 25.1 µM [inhibitor, partial curve].
With NC(=O)c1ccccc1N/C=C/C(=O)c1ccccc1 the Potency was inconclusive: 31.6 µM [inhibitor, partial curve].
In the case of C=CCSC1=C(C#N)C(c2ccc(C(C)C)cc2)CC(=O)N1 (configuration not stated), the “activity change, negative = inhibition” value is reported as inactive: 1.4%.
CC(=O)c1cc2c(cc1NC(=O)c1c(-c3ccccc3)noc1C)OCO2 was tested, and the Potency was inconclusive: 35.5 µM [inhibitor, single point].
With O=C(COC(=O)c1sc2ccccc2c1Cl)NCC1CCCCC1 the “activity change, negative = inhibition” value was inactive: 0.334%.
With O=c1[nH]c2cc3c(cc2cc1CN(CCCO)Cc1nnnn1Cc1ccc(F)cc1)OCO3 the Potency was inconclusive: 25.1 µM [inhibitor, partial curve].
In the case of CC(C)(C)n1nnnc1CN1CCN(C2CCCC2)CC1, the “activity change, negative = inhibition” value is reported as inactive: 2.33%.
In the case of O=C(O)c1cc(Cl)ccc1NC(=O)C1CCCO1 (configuration not stated), the Potency is reported as inconclusive: 39.8 µM [inhibitor, single point].
In the case of NC(=S)N/N=C/c1ccc(-c2ccc(SC(F)F)cc2)o1, the Potency is reported as inconclusive: 28.2 µM [inhibitor, partial curve].
With CCOC(=O)C1=C(C)Nc2nc(C)nn2C1c1ccc(OC)c(OC)c1 (configuration not stated) the Potency was inconclusive: 6.31 µM [inhibitor, single point].
With CC(C)(C)c1ccc(/C=C2\Oc3c(ccc(O)c3CN3CCN(CCO)CC3)C2=O)cc1 the Potency was active: 14.1 µM.
Fc1ccc(-c2nnc(CSc3nnc(-c4ccc5c(c4)OCO5)o3)o2)cc1 was tested, and the Potency was inconclusive: 28.2 µM [inhibitor, single point].
With CCCCn1c(SCC(N)=O)nc2ccc(N3CCOCC3)cc2c1=O the Potency was inconclusive: 28.2 µM [inhibitor, partial curve].
In the case of CCOc1ncccc1C(=O)Nc1ccc(F)c(Cl)c1, the “activity change, negative = inhibition” value is reported as inactive: -1.67%.
In the case of Cc1cc(C)n(-c2nnc3n2N=C(c2ccccc2)CS3)n1, the “activity change, negative = inhibition” value is reported as inactive: -5.27%.
CCc1nc2ccccc2c(NC(=O)CN2CCC(C)CC2)c1C was tested, and the Potency was inconclusive: 25.1 µM [inhibitor, single point].
For Cc1noc(NS(=O)(=O)c2cccc3c(N(C)C)cccc23)c1C, the Potency was inconclusive: 35.5 µM [inhibitor, partial curve].
In the case of O=S(=O)(Nc1ccc(-c2cn3ccccc3n2)cc1)c1ccccc1, the Potency is reported as inconclusive: 39.8 µM [inhibitor, single point].
With CCC(=O)Nc1c(S(=O)(=O)c2ccc(C)cc2)c2nc3ccccc3nc2n1C(C)c1ccccc1 (configuration not stated) the Potency was inconclusive: 31.6 µM [inhibitor, partial curve].
CC(=O)c1ccc(OC(=O)CCc2nc3ccccc3s2)cc1 was tested, and the “activity change, negative = inhibition” value was inactive: -10.4%.
In the case of COc1ccccc1C(=O)N/N=C1/NC(=O)CC(C(=O)Nc2ccccc2)S1 (configuration not stated), the Potency is reported as inconclusive: 28.2 µM [inhibitor, single point].
For COc1cccc(N=CC=C2OC(C)(C)C(C)(C)O2)c1, the Potency was inconclusive: 28.2 µM [inhibitor, partial curve].
